The structures appear in SMILES notation. The campaign covered roughly 310,000 compounds. About 14,000 (4.5%) showed an effect of 50% or more. The effect is printed as a negative number. The list shows a part of the results.
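Note: peak tail current of the secondary pulse compared with the same well before compound.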

human ether-à-go-go-related gene (hERG) potassium channel, sequence (Q12809 whole entry, looked up): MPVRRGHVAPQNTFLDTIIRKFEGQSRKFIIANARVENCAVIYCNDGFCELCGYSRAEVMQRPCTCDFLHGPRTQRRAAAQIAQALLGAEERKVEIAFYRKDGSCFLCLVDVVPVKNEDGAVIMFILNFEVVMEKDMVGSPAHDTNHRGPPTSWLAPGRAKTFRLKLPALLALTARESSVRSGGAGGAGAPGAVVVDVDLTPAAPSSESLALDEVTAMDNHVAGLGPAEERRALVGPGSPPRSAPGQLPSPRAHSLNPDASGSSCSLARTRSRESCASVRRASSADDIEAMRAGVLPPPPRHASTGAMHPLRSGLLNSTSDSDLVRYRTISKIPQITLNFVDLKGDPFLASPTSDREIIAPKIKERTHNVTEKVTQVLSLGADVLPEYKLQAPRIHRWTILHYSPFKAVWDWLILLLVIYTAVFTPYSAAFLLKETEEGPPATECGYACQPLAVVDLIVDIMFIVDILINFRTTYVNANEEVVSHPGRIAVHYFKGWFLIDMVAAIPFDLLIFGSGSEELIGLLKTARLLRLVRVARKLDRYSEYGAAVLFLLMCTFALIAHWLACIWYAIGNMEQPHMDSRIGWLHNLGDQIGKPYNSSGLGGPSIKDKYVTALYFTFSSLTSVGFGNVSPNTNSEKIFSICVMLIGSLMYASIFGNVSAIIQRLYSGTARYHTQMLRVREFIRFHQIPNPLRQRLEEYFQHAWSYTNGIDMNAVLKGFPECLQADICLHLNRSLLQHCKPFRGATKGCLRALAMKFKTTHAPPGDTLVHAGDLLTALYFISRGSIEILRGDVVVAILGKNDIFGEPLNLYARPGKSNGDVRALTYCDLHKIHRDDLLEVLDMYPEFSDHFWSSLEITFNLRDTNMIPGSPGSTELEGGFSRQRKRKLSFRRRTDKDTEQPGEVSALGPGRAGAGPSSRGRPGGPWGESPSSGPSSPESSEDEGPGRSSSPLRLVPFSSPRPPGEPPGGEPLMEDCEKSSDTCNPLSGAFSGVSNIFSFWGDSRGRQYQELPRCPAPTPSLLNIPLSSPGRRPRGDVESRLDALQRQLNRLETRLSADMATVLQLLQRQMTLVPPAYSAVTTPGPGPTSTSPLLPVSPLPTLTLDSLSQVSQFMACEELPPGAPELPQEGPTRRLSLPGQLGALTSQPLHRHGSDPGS

This test addresses human ether-à-go-go-related gene (hERG) potassium channel (human, UniProt Q12809). Put plainly: primary screen, population patch clamp on CHO cells stably expressing hERG.
Regarding `COc1ccc(/C=N/N=C(/N)N[N+](=O)[O-])c(OC)c1`, the “hERG current change (%, negative = inhibition) at 10uM” value is listed as -7.87%.
As for `C=CCNc1nc(C(=O)OCC(=O)c2cccc(Br)c2)cs1`, the figure is -16.3%.
With `Cc1ccc(S[C@@H](CCN2CC[C@H](C)CCC2=O)c2ccccc2)cc1`, the “hERG current change (%, negative = inhibition) at 10uM” value is -15.4%.
With `CC(=NCc1cccnc1)c1c(O)n(Cc2ccccc2)c(=O)[nH]c1=O` the figure was -44.9%.
In the case of `CCOC(=O)N1CCC(NC(=O)CSCc2nc(-c3ccccc3Cl)oc2C)CC1`, the “hERG current change (%, negative = inhibition) at 10uM” value is -19.5%.
In the case of `Cc1sc(NC(=O)/C=C/c2ccco2)c(C(=O)O)c1C`, the “hERG current change (%, negative = inhibition) at 10uM” value came out at 2.85%.
With `Cc1ccc(NC(=O)C2CCN(C(=O)NC3CCCCC3)CC2)c(C)c1` the figure was -4.41%; with `O=C(NCc1ccccc1)c1c[nH]c2ccccc2c1=O`, 10.6%; with `O=C(NCCCN1CCOCC1)c1cccc(S(=O)(=O)N2CCOCC2)c1`, 8.97%.
For the compound `CCCCCn1c(=O)[nH]c2cc(C(=O)NCCN3C(C)CCCC3C)ccc2c1=O` (stereo not shown), the “hERG current change (%, negative = inhibition) at 10uM” value is recorded as -27.4%.
`CCN(CC)S(=O)(=O)c1cc(C(=O)Nc2ccncc2)ccc1Cl`: the “hERG current change (%, negative = inhibition) at 10uM” value is given as -66.3%.
With `Cc1nc2cc(NC(=O)N3CCN(c4ccccn4)CC3)ccc2o1` the figure was 5.32%; with `Cc1nn(C(=O)c2cccs2)c(C)c1CN1C(=O)c2ccccc2C1=O`, -0.617%; with `COc1cccc(-c2csc(N3CCN(C(=S)Nc4ccccc4OC)CC3)n2)c1`, 2.75%.
As for `CC1(C)CC(=O)/C(=C(/O)CCCN2C(=O)c3ccccc3C2=O)C(=NC(C)(C)C)C1`, the figure is -14.6%; as for `COCCn1c(-c2ccc(OC)cc2)cnc1N`, -18.8%.
`Cc1nn(C(=O)c2cccc([N+](=O)[O-])c2)c(C)c1Cl`: the “hERG current change (%, negative = inhibition) at 10uM” value is 17%.
With `CCC(C)c1ccc(NC(=S)N2CCN(c3ccccn3)CC2)cc1` (stereo not shown) the figure was -9.76%.
With `Cc1ccc(Cl)cc1NC(=O)c1cc(NC(=O)C2CCCCC2C(=O)O)ccc1N1CCOCC1` (stereo not shown) the figure was -6.57%; with `O=c1[nH]c(=O)n(Cc2ccco2)c(O)c1C=NCc1ccc2c(c1)OCO2`, -22.3%; with `Cc1cc(C)c(NC(=O)CN2C(=O)NC3(CCOc4ccccc43)C2=O)c(C)c1` (stereo not shown), -3.16%.
With `O=C1OC(CC(=O)N(Cc2nnc(-c3ccc(Cl)cc3)o2)C2CC2)c2ccccc21` (stereo not shown) the figure was -67.8%; with `Cc1cccc(C#N)c1NC1=CC(=O)CC(C)(C)C1.Cl`, -7.4%.
As to `O=C(Cn1c(C(F)(F)F)nc2ccccc21)N=Nc1c(O)[nH]c2ccc(Br)cc12`, the “hERG current change (%, negative = inhibition) at 10uM” value was 15.9%.
For the compound `CCOC(=O)c1sc2ccccc2c1OC(=O)c1ccccc1`, the “hERG current change (%, negative = inhibition) at 10uM” value is reported as -0.968%.
As for `O=c1oc2ccccc2c2c1C(c1ccc(Cl)cc1)Nc1ccc3ccccc3c1-2` (stereo not shown), the figure is 15.1%.
As for `COC(=O)c1ccc(N2C(=O)CC(N3CCC(n4c(=O)[nH]c5ccccc54)CC3)C2=O)cc1` (stereo not shown), the figure is -0.853%; as for `O=C(Nc1ccc(F)cc1F)c1cncc(Br)c1`, -3.88%.
With `COc1ccc(NC(=O)O/N=C/c2ccccc2Cl)cc1` the figure was -16.3%; with `CCCCC1=CC2=CC(=O)C(C)(OC(=O)CC)C(=O)C2=CN1CCc1ccccn1` (stereo not shown), -4.43%.
For the compound `CC(C)c1ccc(NC(=O)CCCN2C(=O)NC(C)(C)C2=O)cc1`, the “hERG current change (%, negative = inhibition) at 10uM” value came to 10.3%.
As for `CC(=O)c1ccc(NC(=O)CCc2nnc3ccc(N4CCC5(CC4)OCCO5)nn23)cc1`, the “hERG current change (%, negative = inhibition) at 10uM” value came out at 2.33%.
Regarding `CCC(C)(C)NC(=O)C(OC(=O)c1ccco1)c1ccccc1F` (stereo not shown), the “hERG current change (%, negative = inhibition) at 10uM” value amounted to 13.4%.
As for `Cc1ccc(N=c2c([N+](=O)[O-])nn(-c3ccc4c(c3)OCCO4)n2O)c(Cl)c1`, the figure is 2.69%.
As for `CCCNC(=O)OCC12CC3CC(CC(C3)C1)C2`, the figure is -13%; as for `COc1ccc(N2CCN(C(=S)Nc3ccc(C)cc3C)CC2)cc1`, 28.7%; as for `COc1ccc(NC(=O)c2ccc(-c3ccccc3)cc2)cc1S(=O)(=O)N1CCOCC1`, 25.5%.
`COc1cccc(OCCCCSc2ncccn2)c1`: the “hERG current change (%, negative = inhibition) at 10uM” value was -15.1%.
As for `O=C(CCS(=O)(=O)c1ccc(Cl)cc1)Oc1ccc2c(c1)OCO2`, the figure is 2.43%; as for `COc1ccc(-c2cc(C(=O)Nc3ccc(C)c(C)c3)no2)cc1`, 20.2%.
As for `N/C(=N\OC(=O)c1ccc(Br)cc1)c1cccc([N+](=O)[O-])c1`, the figure is 23%; as for `Cc1ccc(OCc2ccccc2C)c([N+](=O)[O-])n1`, -6.31%; as for `CCN(C(=O)COc1ccc(F)cc1Br)c1c(N)n(Cc2ccccc2)c(=O)[nH]c1=O`, 2.08%.
As for `COc1ccc(C2CC3(O)CC(C#N)(C(=O)N3)C2(C#N)C#N)cc1` (stereo not shown), the figure is 15.9%; as for `Cc1ccc(NC(=O)CSc2nc(O)cc(=O)n2-c2ccc(C)cc2)cc1`, 15.4%; as for `CC(C(=O)Nc1ccc(S(=O)(=O)N2CCCC2)cc1)N(C)Cc1ccc(F)cc1` (stereo not shown), -9.91%.
Consider `CCCc1ccc2oc(C(=O)N(C)Cc3ccn[nH]3)c(C)c2c1`, for which the “hERG current change (%, negative = inhibition) at 10uM” value was -12%.
With `CCOc1ccccc1N1CCN(C(=O)c2ccc3[nH]c(C)c(C)c3c2)CC1` the figure was 7.49%.
In the case of `CCOc1ccc(NC(=O)CN(C)c2nnnn2-c2ccccc2)cc1OCC`, the “hERG current change (%, negative = inhibition) at 10uM” value turned out to be 0.42%.
With `CCc1cc(C(=O)Nc2nc(-c3ccccn3)cs2)sc1C` the figure was 10.7%; with `COCCn1c(SCC(=O)NC(C)c2ccc(F)cc2)nc2ccccc21` (stereo not shown), 3.36%.
As for `O=c1c2ccccc2nc2c3ccccc3c(NCc3cccnc3)nn12`, the figure is -25.5%; as for `CC1(C)CC2CC(C)(CN2S(=O)(=O)c2ccc(C(=O)Nc3ccc(S(=O)(=O)N4CCOCC4)cc3)cc2)C1` (stereo not shown), 16.5%; as for `CC1CCN(C(C)C(=O)Nc2cc(S(=O)(=O)N3CCCCC3)ccc2Cl)CC1` (stereo not shown), -18.3%.
With `CCN(CC)S(=O)(=O)c1ccc(N2CCOCC2)c(NC(=O)C(C)(C)C)c1`, the “hERG current change (%, negative = inhibition) at 10uM” value was -0.765%.
With `O=C(O)Cn1cc2c(n1)CCCCC2` the figure was 6.77%; with `CCOC(=O)c1cnc(-n2nc(C)cc2C)nc1Oc1ccccc1F`, -6.58%; with `CCCn1nnc(NC(=S)NC(=O)C(C)(C)C)n1`, -5.64%.
As for `COc1ccc(C(=O)N/N=C/c2cn[nH]c2-c2ccc(OC)cc2OC)cc1`, the figure is 38.8%.
As for `CCOc1ccc(C2C(C(=O)O)CCC(=O)N2C2CCCCC2)cc1` (stereo not shown), the figure is 10.6%; as for `Cc1ccc(OC(=O)COc2ccccc2)c(-n2nc3ccccc3n2)c1`, 9.8%; as for `CC(OC(=O)c1ccc2c(=O)n3c(nc2c1)CCC3)C(N)=O` (stereo not shown), 20.6%.
As to `Cc1c(C(=O)OCC(=O)NC(C)c2ccccc2)oc2ccccc12` (stereo not shown), the “hERG current change (%, negative = inhibition) at 10uM” value is given as 23.3%.
As for `Clc1cccc(N2CCN(c3ncnc4nc[nH]c34)CC2)c1`, the figure is -2.38%; as for `CC(C)N(Cc1cn[nH]c1-c1ccc(-c2ccccc2)cc1)Cc1nccn1C`, -71.9%.
Turning to `O=S(=O)(Cc1cccc(F)c1)c1c[nH]c2ccccc12`, the “hERG current change (%, negative = inhibition) at 10uM” value came to 8.65%.
As for `Cc1ccc(SCC(=O)OCC(=O)NC2CCCCCC2)cc1`, the figure is 24.6%; as for `Cc1cc2c(OCC(O)CN3CCCC3)cccc2[nH]1` (stereo not shown), 18.7%; as for `CCN(c1ccccc1)S(=O)(=O)c1cc2c(cc1C)N(C)CCO2`, -13%.
As for `O=C(c1ccc2c(c1)OCO2)N1CCCC1`, the figure is 12.6%.
With `Cc1ccc(C(=O)Nc2cccc(-c3cnc4ccccc4n3)c2)cc1` the figure was 7.83%; with `COc1ccccc1NC(=O)N1CCN(C(=O)Nc2ccccc2OC)CC1`, 0.184%; with `C#CCOCCOCCOCCNc1nc(N2CCN(C(=O)Cn3cc(CCCC[NH3+])nn3)CC2)nc(N2CCN(C(=O)[C@H](CCCC[NH3+])n3cc(CCC(=O)O)nn3)CC2)n1.[Cl-]`, 6.98%.
Take `O=C(COC(=O)c1ccccc1NCCO)NCc1cccs1`: the “hERG current change (%, negative = inhibition) at 10uM” value is 0.449%.
With `COC(=O)[C@H]1C[C@@H]1[C@H](NC(=O)c1cc(C)on1)c1ccccc1` the figure was 10.3%; with `CC1CCCCC1NC(=O)c1ccc(-n2cncn2)c([N+](=O)[O-])c1` (stereo not shown), -13.5%.
As for `COc1ccc(C2CC(c3ccccc3Cl)Nc3ncnn32)cc1OC` (stereo not shown), the figure is -23.3%.
Take `COC(=O)c1cn(C(C)C(=O)NCc2ccco2)c2ccccc12` (stereo not shown): the “hERG current change (%, negative = inhibition) at 10uM” value stood at 9.97%.
On to `Cc1ccc(CN2CCN(Cc3cn[nH]c3-c3cccc(F)c3)CC2CCO)o1` (stereo not shown), for which the “hERG current change (%, negative = inhibition) at 10uM” value is recorded as -25.8%.
On to `Cc1cc(=O)c(C(=O)c2ccccc2)c(C)o1`, for which the “hERG current change (%, negative = inhibition) at 10uM” value stood at 21.2%.
`S=c1[nH]nc(Cc2cccc3ccccc23)o1`: the “hERG current change (%, negative = inhibition) at 10uM” value is recorded as 18.7%.
Take `Nc1nc2c(Cl)cc(Cl)cc2s1`: the “hERG current change (%, negative = inhibition) at 10uM” value is 19.1%.
With `Cc1cc(C)c2c(=O)n(CC(=O)NC3CCCC3)sc2n1` the figure was 4.76%.
As for `CC1(c2nnc(-c3cccc(Cl)c3)o2)CC(c2cccc(F)c2)=NO1` (stereo not shown), the figure is -1.02%; as for `O=C(NC(=S)Nc1cccnc1)c1ccccc1`, 13%; as for `Cc1nc2ccccn2c1C(=O)NNC(=O)Nc1cccc(C(F)(F)F)c1`, -11%.
Turning to `CN(C)S(=O)(=O)c1cccc(C(=O)c2nccn2C)c1`, the “hERG current change (%, negative = inhibition) at 10uM” value is listed as 3.94%.
With `Cc1ccc(NC(=O)CN2CCCCC2)c2c1CC(C)(C)O2` the figure was 1.17%.

The values above are taken from article PMC4336329 (PLoS ONE, 2015).
